# From the supplement of paper PMC7125110
# ± gives the standard error. Variants at the background level are over-represented here.
# B1: glmS ribozyme (parent)
# chain: AUAAAAGCGCCAGAACUACAGAAAUGUAGUUGACGAGGAGGAGGUUUAUCGAAUUUUCGGCGGAUGCCUCCAAA
# Legend:
# Settings in all cases: with glucosamine-6-phosphate
# glucosamine-6-phosphate [1] = variants of: B1; assay: self-cleavage kobs at 640 uM GlcN6P; higher = faster cleavage; RNA array
# Summary of the method: (§1)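 Glucosamine-6-phosphate in HEPES/KCl/Mg(OAc)2 buffer, at 40 μM to 10 mM, was flowed over barcoded ribozyme variants transcribed in situ by E. coli RNA polymerase on sequenced MiSeq chips. Tracking was through a hybridised Cy3 probe at 37 °C. kobs, kcat and KM came from exponential decay fits and weighted Michaelis–Menten fits of normalised per-tile medians.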
# glucosamine-6-phosphate [2] = variants of: B1; assay: self-cleavage kobs at 10000 uM GlcN6P; higher = faster cleavage; RNA array
# Summary of the method: as §1
# glucosamine-6-phosphate [3] = variants of: B1; assay: self-cleavage kobs at 160 uM GlcN6P; higher = faster cleavage; RNA array
# Summary of the method: as §1
# glucosamine-6-phosphate [4] = variants of: B1; assay: self-cleavage kobs at 2500 uM GlcN6P; higher = faster cleavage; RNA array
# Summary of the method: as §1
Variant,self-cleavage kobs at 640 uM GlcN6P (glucosamine-6-phosphate [1]),self-cleavage kobs at 10000 uM GlcN6P (glucosamine-6-phosphate [2]),self-cleavage kobs at 160 uM GlcN6P (glucosamine-6-phosphate [3]),self-cleavage kobs at 2500 uM GlcN6P (glucosamine-6-phosphate [4])
C10A A36G G38C G44A C61U,< 1e-05 s⁻¹,< 1e-05 s⁻¹,,
A12C U65G,0.000543 ± 8.2e-05 s⁻¹,,0.000115 ± 2.1e-05 s⁻¹,0.00157 ± 0.00024 s⁻¹
A12G U49A G63U,< 1e-05 s⁻¹,,< 1e-05 s⁻¹,
C10G A14G A36C G62U,< 1e-05 s⁻¹,,,
C11U G40U A42G U49G G59A,< 1e-05 s⁻¹,,,< 1e-05 s⁻¹
A12G U69A,4.87e-05 ± 2.1e-05 s⁻¹,9.85e-05 ± 1.9e-05 s⁻¹,,0.000171 ± 5.2e-05 s⁻¹
C11U G38C G51U U65A,< 1e-05 s⁻¹,,,
C11A A53G G63A,< 1e-05 s⁻¹,,,
C11G U31A G43U U49A,< 1e-05 s⁻¹,< 1e-05 s⁻¹,< 1e-05 s⁻¹,
C11U G29U G37C C70A,0.000166 ± 5.6e-05 s⁻¹,,,
C10U A42C,< 1e-05 s⁻¹,,< 1e-05 s⁻¹,< 1e-05 s⁻¹
C11A C16U U30G A36G A39C U47G,< 1e-05 s⁻¹,,,< 1e-05 s⁻¹
C11G G35U C61G,< 1e-05 s⁻¹,,,
C10A A42G G51U,< 1e-05 s⁻¹,< 1e-05 s⁻¹,,
C10U G43C U47C,< 1e-05 s⁻¹,,,
C10G U31C G43A G44U C58A,< 1e-05 s⁻¹,,,
C11A A15G A39C G40U G51C,< 1e-05 s⁻¹,,< 1e-05 s⁻¹,< 1e-05 s⁻¹
A12G C50A C58G G59C,< 1e-05 s⁻¹,,,
C10U G35U G51A,< 1e-05 s⁻¹,,,
A12C A52U C71U,4.93e-05 ± 1.4e-05 s⁻¹,,,0.000116 ± 2.4e-05 s⁻¹

Variant,self-cleavage kobs at 640 uM GlcN6P (glucosamine-6-phosphate [1]),self-cleavage kobs at 10000 uM GlcN6P (glucosamine-6-phosphate [2]),self-cleavage kobs at 160 uM GlcN6P (glucosamine-6-phosphate [3]),self-cleavage kobs at 2500 uM GlcN6P (glucosamine-6-phosphate [4])
C10U G35C G62C,< 1e-05 s⁻¹,,,< 1e-05 s⁻¹
C10G G40U C71U,< 1e-05 s⁻¹,,,< 1e-05 s⁻¹
C10G C11A U31C G35C C70G,0.00013 ± 6.3e-05 s⁻¹,,,
C11A G62U,< 1e-05 s⁻¹,,< 1e-05 s⁻¹,
A12G A15G G60U C70U C71U,< 1e-05 s⁻¹,,,
C10G C16U G29A G51U A52G,< 1e-05 s⁻¹,,,< 1e-05 s⁻¹
A12G U30G G43C U46G,< 1e-05 s⁻¹,,,
C10A G13U C16A U56G U65A,< 1e-05 s⁻¹,,,
A12G U54A,0.000125 ± 2.3e-05 s⁻¹,0.000878 ± 0.00013 s⁻¹,,0.000221 ± 4.5e-05 s⁻¹
A12C C34G G41U C58U A64C,< 1e-05 s⁻¹,,,< 1e-05 s⁻¹
A12C G63C,< 1e-05 s⁻¹,< 1e-05 s⁻¹,< 1e-05 s⁻¹,< 1e-05 s⁻¹
A12C A33G C50A A53C,< 1e-05 s⁻¹,,,
C11U A33U G35C,< 1e-05 s⁻¹,,< 1e-05 s⁻¹,< 1e-05 s⁻¹
C10A C11G G37U A39G A53U G60A,< 1e-05 s⁻¹,,,< 1e-05 s⁻¹
C11U G29A,9.17e-05 ± 1.1e-05 s⁻¹,0.000474 ± 5.6e-05 s⁻¹,,0.000194 ± 3e-05 s⁻¹
A12G A53G,0.000231 ± 3.1e-05 s⁻¹,0.00114 ± 0.00015 s⁻¹,5.44e-05 ± 7.9e-06 s⁻¹,0.000633 ± 7e-05 s⁻¹
C11A U31G,4.58e-05 ± 1.1e-05 s⁻¹,0.000253 ± 5.7e-05 s⁻¹,,0.000179 ± 3.7e-05 s⁻¹
C11A G13C G35U,< 1e-05 s⁻¹,,,< 1e-05 s⁻¹
A12C G32C U57C C58U,< 1e-05 s⁻¹,,,< 1e-05 s⁻¹
C10A U49C C71G,< 1e-05 s⁻¹,,,

Variant,self-cleavage kobs at 640 uM GlcN6P (glucosamine-6-phosphate [1]),self-cleavage kobs at 10000 uM GlcN6P (glucosamine-6-phosphate [2]),self-cleavage kobs at 160 uM GlcN6P (glucosamine-6-phosphate [3]),self-cleavage kobs at 2500 uM GlcN6P (glucosamine-6-phosphate [4])
A12G G41C G63C,< 1e-05 s⁻¹,< 1e-05 s⁻¹,,
C10U G43C U47C A52C U65C G66A C70G,< 1e-05 s⁻¹,,< 1e-05 s⁻¹,
C11U G35A U45G U55G,< 1e-05 s⁻¹,,,
C10U U47G U56A C58U,< 1e-05 s⁻¹,,,
C10U A15C C34G C58G,< 1e-05 s⁻¹,,,< 1e-05 s⁻¹
C10A C34A,< 1e-05 s⁻¹,< 1e-05 s⁻¹,< 1e-05 s⁻¹,
C11G U45G C71U,< 1e-05 s⁻¹,,,< 1e-05 s⁻¹
C10U U46C G51U,< 1e-05 s⁻¹,,,
C11U A15G G35A C61A C71U,< 1e-05 s⁻¹,,,< 1e-05 s⁻¹
C11U A12C U31G G32U U57G,< 1e-05 s⁻¹,,,
C10A C16A U47C U65C,< 1e-05 s⁻¹,,< 1e-05 s⁻¹,
C10G C11A A39U,< 1e-05 s⁻¹,,,< 1e-05 s⁻¹
C11U G32C C50G A52U,< 1e-05 s⁻¹,,,
C10U G63C,< 1e-05 s⁻¹,< 1e-05 s⁻¹,,
C11U U46C A52U U57C G66U,< 1e-05 s⁻¹,,< 1e-05 s⁻¹,
A12C G13A,6.42e-05 ± 1.2e-05 s⁻¹,0.00032 ± 5.7e-05 s⁻¹,,0.000302 ± 5.1e-05 s⁻¹
C11U G32A,0.00014 ± 3.1e-05 s⁻¹,0.000404 ± 4.4e-05 s⁻¹,5.04e-05 ± 2.1e-05 s⁻¹,0.000239 ± 5.9e-05 s⁻¹
C10U C11U C67U,< 1e-05 s⁻¹,,,< 1e-05 s⁻¹
A12G G38U A42C C50A,< 1e-05 s⁻¹,,,
C10G A12U U31A A36U C71U,< 1e-05 s⁻¹,,,
